# Assay results as given in the RNAGym collection of RNA variant scans (doi:10.7554/elife.90254).
# The source gives no read counts; variants with many changes may rest on few reads.
# B1: LINE1-mini (parent)
# chain: GGCAGAGCUCAACACAGCGUGGCAAAGUGGCUGUGGCUAGACUGCC
# Variants of: B1
# Experiment: self-cleavage, relative activity (ratio to wild type); higher = more cleavage; in vitro, sequencing; the parent is a self-cleaving ribozyme
row,Variant,self-cleavage
1,A4C A11U G22U C42U U43C,0
2,A4U C8A A26U,0.14
3,G7A U34G G44A,0.02
4,A14C G22U C23U,0.06
5,G5C C13A G19U U20C,0.07
6,G27A G30A G36U U43A,0.61
7,G5U A26U G30C,0.02
8,G1C A6G A12C A14G A25C,0
9,A4C C8A C13A U28G C31U G44A C45A,0.08
10,C8G A26C C45U,0.06
11,C8G A25U U43C,0.01
12,C3U A25C G35A G40A,0.05
13,G7A C13G G40C,0.62
14,U9G C13A C37A,0.38
15,G2C A26U G35A,0.41
16,G1C G2C C18A G40U,0.06
17,C18U G35A G36C U38G,0.02
18,A16C U20C A39U,0.06
19,C18U G29A G40U C46A,0.15
20,G1U G5C G40C,0.01
21,C8U G17C U20G G21A G30A,0.13
22,G5A G7U C15U A25U A26C C31U,0.13
23,C3A G17C C18G A24U,0.11
24,G1U G7A U32C,0.13

row,Variant,self-cleavage
1,G21A C31U C45U,0.34
2,C18U G33A C45G,0.03
3,G5U A12G C13G A14G,0.03
4,G7A A16C G19A,0.08
5,A11U C15A A16C G27C C46U,0
6,A12U G29C G30U,0.13
7,G1C C8G G17U C18G C46A,0.04
8,C8U G33A C45A,0.18
9,A4C C18G A25U U43A C46A,0.01
10,U9C A14G A26C G30C,0
11,G5C G33U A39C,0.18
12,C3G A26C G30C,0.04
13,A4U C8U G21A A24U,0.07
14,C8A U9C C13G G27C,0.09
15,G1C G5C A11C G27A G33U U34A,0
16,A6C C18G G44A,0.04
17,C3A C23U A24G U28C G33A G44U,0.52
18,G5A C8G A11G C31U,0.01
19,C8G A24G G27A G36A G40U,0.06
20,A4G U9C U43A C45G C46G,0.03
21,C15A U28A C45U,0.16
22,A4C C8G C13U,0.03
23,G5A C13G C37U G40C,0.04
24,C8A A16G G35U,0.19

row,Variant,self-cleavage
1,U20G G21A G40A,0.01
2,G7A G17A G22A U32A G40U C42A,0.05
3,G2U C18U A39U G44C,0.01
4,U20G U32C C37G,0.03
5,G17U G19U U28A U34A C46U,0.01
6,G30U U32A G35C,0.04
7,C13U C18A G19U G21A U28A,0.04
8,C8U C23A G29A,0.06
9,A11G C13U G17U C18G U20G U43A,0.01
10,C3U C15G C31U G40U,0.01
11,C3A U20G G40A A41C G44A,0.09
12,G2C G17A G19A U20C G27C C31G,0.01
13,C18A G22A C23U A26G G35A,0.01
14,G2C A4U U9C U20A A26U,0.03
15,G2A C15A U28C U34A,0.1
16,C18A G19A A41G,0.19
17,C15U C18A C31U,0.02
18,C15A C18U G22A U34A,0.17
19,A4G G22U A41C G44U,0.02
20,G17U A26C G33C G36A A39U,0.02
21,A25U A26U C31U,0.09
22,C13A G29U C42G,0.29
23,G5U G7C C10U G27A G29U,0.01
24,G5U C8U U28A,0.13

row,Variant,self-cleavage
1,G7A C15U A16C A25U,0.11
2,G17A G27A A41U C42U,0.05
3,C15G A26U G29C,0.24
4,A6U C10U C37G U38A,0
5,G2U C23A C37A U38A,0.03
6,G19C U20A A26U U34A,0.1
7,G1A C15A G21U G33C G35A,0.04
8,C8A G21U G29A G36C,0.16
9,G7U A25G G29U,0.04
10,C23A A24U G30U G33A C46U,0.2
11,C10A G40U A41U,0.01
12,G29A G30U G33U,0.07
13,G5U C18A C45A,0.05
14,C3U C15A A16U U28C A41C,0.02
15,C8A G22A U28A C46G,0.23
16,U20A G33C G44U,0.01
17,C18A A26U U32G G35U,0.01
18,G2U C10A A14G C18A,0.01
19,A11G G19U G22A C45G,0.02
20,G1C C3A C15U G27A,0.61
21,A25C C37G G44A,0
22,C15A G17U G19A C23U G36A U38G,0.02
23,C13G G36A A39C,0.03
24,G2C C13U C37U G44C,0.37

row,Variant,self-cleavage
1,U9A G36U A41U,0.02
2,G5U G7C G27C,0.07
3,C10G C23A A26C C31A,0.04
4,C18G G36U C46U,0.03
5,A4C A11G C13G C37G,0.02
6,G22C A24U C37A,0.08
7,G7U C13A G22A G27A U38G,0.02
8,A16C A24G G44A,0.01
9,C3U G17U U28G G33U C46A,0.03
10,G5A A24G G27A C37U A39G,0.11
11,A14C G19A G36U U38A G44A,0.01
12,C15U G19C U20A G22A G33U G35A,0.09
13,G7C G17U U20A A41C U43A,0.07
14,A11U C13G C18G A41U C45A C46G,0
15,C15G C18A U34C C42G,0.02
16,A4C A6C G7C A14G A16C C42G,0.22
17,C8U U43A G44A,0.69
18,C3A C10G G22U G40U,0.02
19,C8A A16G C31A,0.05
20,C10A A12G G29C C37U G40U,0.01
21,G5A G7A C15A U38A,0.06
22,C18G C23U A26C G40A,0.11
23,C15G A16C C37U,0.02
24,G33C G36U A39C,0.03

row,Variant,self-cleavage
1,G21C G36U C37A,0.06
2,G2C C23U G30A U38A C46A,0.19
3,C8A G17A G19C C37U G40U,0.09
4,A12C G22C G40A,0.03
5,G5U A14U A16C,0.08
6,C13U C15A A24U G27A U38G,0.03
7,U9C G22A U34A C37A,0.03
8,A6U U28G A41U C45G,0.02
9,G1C A6C U32C,0.02
10,A14U C18A G21C C37G,0.02
11,A11C G21C C23A G27C G33A G35C,0.01
12,A11G G21A A39G,0.01
13,C15G A16G G29A,0.02
14,G30C A39C A41G,0.11
15,G2C U9C G30C C31U C42U,0.08
16,G1C G2C G5C C46A,0.01
17,U28C G30C U38C,0.64
18,C10A G17A G22C A25C,0.02
19,G30C G33C G44C,0.04
20,C10A C31U G35A G44U,0.01
21,C3A A25G G27U G33A C42A,0.02
22,G7A A25U C31U,0.59
23,C23A G33U C46A,0.95
24,A6G G7U G33C G40C,0.12

row,Variant,self-cleavage
1,A6C G7A U28A,0.06
2,G2U C23U C31A G33C,0.02
3,G1U A14U C15G,0.02
4,G19U G27C C46U,0.49
5,G2A C15G U38A,0.04
6,G2C U9C C10G A12U C18U G44U,0.01
7,A14U A25G G35U,0.09
8,C10U A16C C18U G33C C37U U38C A41U C46A,0
9,A26C G35A A41G,0.07
10,C3U C8A C18G,0.15
11,C10U C15U A16G,0.83
12,G2C C10A C46A,0
13,G2C A4C C8U A16G C37A,0.02
14,C10A A12G C18U G36U,0
15,G5U G21U C45U,0.03
16,G1U G2U C31A G33C G36C,0.01
17,A6C G21U C23U A39C,0.04
18,C8G G21C G27U U38C,0.06
19,U9A G29C G36U,0.01
20,A4U G5A A11C,0.05
21,C3U G22A A41C,0.03
22,U9A C31G G33C,0.27
23,A4G G21U C23A A25G U34A,0.06
